Results from the supplement of paper PMC3334620.
In all, about 33,000 sequences were measured (“E-score (-0.5 to 0.5)”: median about -0.021, highest 2% from about 0.32 on). The list shows a part of the results.

Biological target: T1, Zap1 (UniProt P47043)
T1 sequence: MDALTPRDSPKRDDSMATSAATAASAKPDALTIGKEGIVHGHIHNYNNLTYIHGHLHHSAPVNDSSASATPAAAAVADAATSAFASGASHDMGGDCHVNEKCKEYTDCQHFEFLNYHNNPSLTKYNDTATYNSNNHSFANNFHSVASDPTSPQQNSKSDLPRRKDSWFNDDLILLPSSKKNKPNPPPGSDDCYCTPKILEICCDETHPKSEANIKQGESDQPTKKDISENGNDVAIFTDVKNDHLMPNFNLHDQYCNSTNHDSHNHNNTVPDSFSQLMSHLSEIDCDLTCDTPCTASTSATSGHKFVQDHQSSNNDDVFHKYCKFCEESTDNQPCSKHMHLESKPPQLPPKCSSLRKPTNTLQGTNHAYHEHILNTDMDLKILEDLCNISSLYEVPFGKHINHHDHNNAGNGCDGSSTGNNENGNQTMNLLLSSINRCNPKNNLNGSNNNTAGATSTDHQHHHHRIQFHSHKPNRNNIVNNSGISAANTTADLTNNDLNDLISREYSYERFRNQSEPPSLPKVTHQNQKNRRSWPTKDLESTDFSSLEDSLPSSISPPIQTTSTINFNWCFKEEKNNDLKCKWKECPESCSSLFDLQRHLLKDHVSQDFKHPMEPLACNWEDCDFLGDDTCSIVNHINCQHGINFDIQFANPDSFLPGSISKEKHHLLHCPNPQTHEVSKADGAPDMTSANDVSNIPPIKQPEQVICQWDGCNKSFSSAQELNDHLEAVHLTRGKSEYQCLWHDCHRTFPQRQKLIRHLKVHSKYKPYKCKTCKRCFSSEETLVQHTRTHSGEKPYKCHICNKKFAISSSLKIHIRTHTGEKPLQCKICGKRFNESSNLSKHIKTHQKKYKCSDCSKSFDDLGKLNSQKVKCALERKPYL
Assay: PBM E-score (8-mer binding enrichment) (E-score (-0.5 to 0.5)); higher = stronger / more preferred TF binding; most listed sequences are background and not binding sites
Conditions: protein concentration: 200 nM; construct: GST-full length
Summary of the method: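 The E-score, a modified Wilcoxon-Mann-Whitney statistic, was computed by the Universal PBM Analysis Suite for every ungapped eight-base word pooled with its reverse complement. Scans behind it were normalised with masliner after bound GST-tagged yeast transcription factors were detected with fluorescent anti-GST. The proteins, at about 100-200 nM, had been applied to universal all-10-mer Agilent arrays made double-stranded by primer extension.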

Sequence | PBM E-score
CATTACAA | -0.0413
AAACTGGA | -0.0165
CAGTATGG | -0.068
TCAACCGA | 0.0646
CGATCGTC | -0.00989
CAGCGTAA | -0.0388
CCACAGTC | -0.166
AAACATAT | 0.201
AAGTGCCA | -0.118
GTTGTGGA | 0.133
CGAAAAAC | 0.154
GGATGCAA | 0.0164
CCCGTCCC | -0.137
CAAGGCTC | -0.353
CGAGCATA | -0.143
GTAACTGA | -0.0518
AGGTCTGG | -0.0286
AAGACACT | -0.11
ATGAGAAT | -0.0179
CGCGAGCG | -0.207
ATATACCC | 0.228
AGTTCTTA | 0.0253
CTATACAG | -0.0315
CGCACGAG | -0.205
CACGTCTA | 0.00514

Sequence | PBM E-score
GGTTATAC | 0.461
CACTGCTC | -0.0463
CGGTGCGC | -0.0033
AATCCGTA | -0.17
GCACCCTA | 0.297
AATCTTTC | 0.0271
GTATGAAC | 0.128
AATCACTG | 0.0527
ACACTCGG | -0.113
GCTGGGAC | -0.313
ATACACTG | -0.171
GACATACC | 0.101
AGAAAGCT | -0.0049
CCGCTAGA | -0.135
CTGGATGA | -0.138
GGGACTGA | -0.168
AGAAGGTG | 0.213
AGTAGGAG | -0.192
GGGGTAAA | 0.269
AACAGTCC | -0.225
AGATCGCA | -0.127
AGGAAGCG | -0.13
ACGGACCT | 0.0309
GGCGGGCA | -0.115
ACGCCCAG | -0.145

Sequence | PBM E-score
CCGCACCC | 0.177
CGCCGACC | -0.168
AGGCATCA | -0.153
CGAAGAGA | 0.0227
TCAGATAA | 0.0687
TATATGCA | 0.052
CGCCAGCA | -0.24
CAACAACA | 0.0865
GTAGTAGA | 0.0536
CGGAGCAG | -0.186
ATGCCTCA | -0.251
CAGTGGAC | -0.0561
GCTGGCGA | -0.192
AGTACGAA | 0.0797
TAGTCGAA | -0.174
CTACATAC | 0.0497
ATGCCACC | -0.11
CGGCGAGA | -0.0754
ATTATAGC | -0.00614
CCTGCATC | -0.0964
AATGCCAG | -0.126
ACGATACT | -0.112
ATGCGTAG | -0.103
CTACGGCA | -0.121
GATTTAAC | 0.00999

Sequence | PBM E-score
GTCGTTCA | -0.0173
CCGGCCAA | -0.161
GGTTTCTA | 0.158
CTGTGTTA | -0.0318
ATTATCCA | 0.107
ATCACTTA | 0.00193
GTGGGGCA | 0.0703
GGCTCTGA | -0.167
ATTAATCG | 0.112
TCTCATCA | 0.0193
CTGTAGGC | -0.118
CACGTTAC | 0.0657
CTTACTTA | 0.0622
CTACACTA | -0.036
GGTGTAAA | -0.00155
ATAGTTAC | 0.114
AACCAACC | 0.126
ACAGGTCG | 0.0832
AATTGTGG | 0.00368
AAAAGGGC | 0.149
AGGTAGAA | 0.0149
CGAGTTGA | 0.0421
GCGCATCA | -0.0115
GCACGGAA | -0.302
AAAGGTGC | -0.0887

Sequence | PBM E-score
GGGACTAA | 0.0381
AGCTGCTC | -0.219
AAGTCCAA | 0.0986
ATCGTACC | 0.0624
CAGCTTAC | -0.00935
CACGCAAA | -0.0296
AATTTCCA | 0.0237
GGTAGGCA | 0.00685
TACAGGGA | -0.124
AAGCGACC | -0.0943
CGTCGGAC | -0.054
AACGACCA | 0.119
AGAACTGG | 0.0572
GGGGGCTA | -0.298
ATGCTTCA | -0.0368
GGAGGACA | -0.176
AATGGCAT | -0.0795
AATACTGA | -0.0588
GGACCAGA | 0.0948
ACATACGG | -0.0375
GGTCTAAA | 0.19
CTCCACCA | -0.157
TAAGACCA | 0.245
CGAGCTGC | -0.163
GAAACAAC | 0.069

Sequence | PBM E-score
ACTTTCTA | 0.0335
AGTCCCCG | -0.184
AGTGAGAT | -0.203
AATTGATC | -0.102
GAAACACC | 0.164
CCGCTGGC | -0.00629
CATAAGGG | 0.274
GCCCACTA | -0.221
AGCCTATA | -0.0547
AGGGTCGG | 0.126
AGAGCACT | -0.0825
CGGGTATA | 0.317
ATGCGTAA | 0.0259
TATACCCA | 0.0427
CCCTTGCG | 0.00153
AGTGTATC | 0.0414
CGCAAGTC | -0.279
CTACCCGA | 0.25
ATGACCGA | 0.0244
AGAGGCGG | 0.0791
CGGGCACC | 0.0621
AAACTCTG | 0.0245
ATTTTCTA | 0.122
GGTACCAA | 0.337
AAAAGTTC | 0.124

Sequence | PBM E-score
TAGTGAAA | 0.0363
CCCTAGGC | -0.0419
CGTACTAG | -0.128
GGACCTTA | -0.00744
CACTGTCC | -0.0413
CATTTGAA | 0.0106
CTCTCCGC | -0.24
CTGCAACC | 0.187
AACTGATA | -0.068
CCCAGCCG | -0.107
GTACTTTA | 0.104
AATAGATG | 0.0253
GTTAGTTA | 0.211
CGTGCTGC | -0.101
ACACTCGA | -0.109
GCCGAGCC | -0.273
CACGGGAC | -0.0821
GCCCAAGC | -0.132
AATGCGAC | -0.0561
CTAAATTA | 0.103
GCAGCCGC | -0.0832
GCTTGGAC | -0.326
